Measurements taken from the supplement of paper PMC11417369.
This is one part of the list.

tested on: PfSIP2 AP2 domain 1 (GST-tagged); assay: gcPBM binding intensity (ln(normalized median fluorescence intensity)); higher = stronger DNA binding
In short: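 An Agilent 4 × 180k array of primer-extended double-stranded 36-bp intergenic genomic probes, with negative controls, was incubated for 1 h with GST-tagged P. falciparum DNA-binding domains expressed in E. coli. Alexa488 anti-GST antibody detected bound protein, scanned at 488 nm. Binding intensity is the highest Masliner-normalised natural-log median intensity across replicate spots of either probe orientation.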

Point of comparison: “AGTTGTTACGAACATACACACGAACATAGACACGGA [CACACA_site8102]”, “gcPBM binding intensity (ln)” value 7.12. Against it:
- GGATGCACACAAAAGGGTACATAAGAAAAAAACAGG [XGTACX_site8570] — higher, 7.64
- CACGCACAGATATATACACACTTTTATTTAAATAAC [CACACA_site6852] — higher, 7.41
- AAAAATAAAATGGACACACACGTTCAAATTTAGATT [CACACA_site5186] — lower, 6.81
- TGGGTAAACAAACACACACACATATATATATATATA [CACACA_site1992] — higher, 9.19
- AAATATATATATAGTTGTACATATATCGTATATATT [XGTACX_site7867] — lower, 7.04
- TTCACTAATAAATACGCACACATATACAGATATATA [CACACA_site4887] — higher, 7.24
- TTATTTAAATAATATGTACACACATTTAAAAAATTA [CACACA_site8912] — lower, 7.04
- AAAAAAAAATATATAAACACACATATTTATATACAC [GTGCAC_negctrl_site545] — lower, 6.87
- ATGAGTGTAATAATATGTACATAACCTACATAATTT [XGTACX_site852] — lower, 7.09
- GCACACATATAATAATGTACATATATATATTTAAAA [XGTACX_site4561] — higher, 7.29
- TATTGATTATTTGAATGTACTTATTATATTAAATAT [XGTACX_site1304] — lower, 6.91
- ACACGCACATATATATAAATATATATATATATAAAT [CACACA_negctrl_site1781] — higher, 7.35
- AATAAAAATATTTTTACATGCAAATGTTATATATTT [TGCATGCA_site1056] — lower, 7.07
- AAAAAAAATTATTATGAACACACATTTATTATATTC [CACACA_site8443] — lower, 6.68
- ATTCTACACAGACATACACACATATATATATATATA [CACACA_site5826] — higher, 9.35
- TATATATGTTTATGTAGTACTATATATCCCTTTCTT [XGTACX_site7049] — lower, 7
- TAATATGATCTTAATAGTACTTTATTAATAATAACC [XGTACX_site1953] — lower, 6.95
- AAAAAAAAAAGACACACACACAAAAAAAGATATATA [CACACA_site6645] — lower, 6.81
- TAGAATAAGATAGATATACACACCATTATAAATATA [CACACA_site2500] — lower, 6.78
- TTACAAAATAAGAGGCACAAACACAAAAAAAAATAA [CACACA_negctrl_site574] — lower, 6.95
- ATAAAAATATTACGCACACACAAACTTATTCATTAT [CACACA_site1969] — higher, 7.21
- GTAACTTTATTATACTGTACTATTATATAAGCACAC [XGTACX_site2859] — higher, 7.42
- TTGTTCAAACAAAAAATAAAATAATTGAAAATAAAA [CACACA_negctrl_site812] — lower, 6.87
